Experimental data as given in the supplement of paper PMC3334620.
Whole data set: some 33,000 sequences, median “E-score (-0.5 to 0.5)” near -0.021, cut for the highest 2% near 0.32. The list shows a part of the results.

Each sequence was assayed against T1, Zap1 (UniProt P47043) (assay: PBM E-score (8-mer binding enrichment) (E-score (-0.5 to 0.5)); higher = stronger / more preferred TF binding; most listed sequences are background and not binding sites). Settings: protein concentration: 200 nM; construct: GST-full length.
T1 sequence: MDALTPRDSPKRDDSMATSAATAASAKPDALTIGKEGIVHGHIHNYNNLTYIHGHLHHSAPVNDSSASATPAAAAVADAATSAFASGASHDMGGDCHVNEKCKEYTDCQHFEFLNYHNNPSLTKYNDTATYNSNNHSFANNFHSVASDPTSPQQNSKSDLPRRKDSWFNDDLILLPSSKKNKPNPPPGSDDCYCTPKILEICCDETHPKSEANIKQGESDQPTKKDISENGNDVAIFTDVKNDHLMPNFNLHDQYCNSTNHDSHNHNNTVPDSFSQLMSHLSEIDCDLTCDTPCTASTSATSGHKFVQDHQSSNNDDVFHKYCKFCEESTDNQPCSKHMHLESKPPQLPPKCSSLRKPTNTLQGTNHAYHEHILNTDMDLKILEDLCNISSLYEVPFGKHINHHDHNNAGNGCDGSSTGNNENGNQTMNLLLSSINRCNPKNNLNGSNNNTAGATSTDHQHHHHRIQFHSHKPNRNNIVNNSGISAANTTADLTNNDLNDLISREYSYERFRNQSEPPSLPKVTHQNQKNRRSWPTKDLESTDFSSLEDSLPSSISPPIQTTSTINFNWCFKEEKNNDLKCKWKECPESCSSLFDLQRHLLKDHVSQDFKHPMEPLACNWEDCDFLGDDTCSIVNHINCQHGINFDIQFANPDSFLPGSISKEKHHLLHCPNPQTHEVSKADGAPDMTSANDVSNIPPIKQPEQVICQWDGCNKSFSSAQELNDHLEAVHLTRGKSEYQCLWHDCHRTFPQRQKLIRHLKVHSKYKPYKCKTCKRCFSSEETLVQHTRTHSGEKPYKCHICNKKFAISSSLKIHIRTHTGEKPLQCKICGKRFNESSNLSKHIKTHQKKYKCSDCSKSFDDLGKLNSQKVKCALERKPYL
Experimental: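 Universal 'all 10-mer' protein binding microarrays (Agilent AMADID 015681) probed with GST-tagged S. cerevisiae TFs (full-length or DBD) made by in vitro transcription/translation (PURExpress), about 100-200 nM. Bound TF was detected with fluorescent anti-GST. Each ungapped 8-mer (which stands for itself and its reverse complement) is scored by the PBM enrichment score (E-score), a modified Wilcoxon-Mann-Whitney statistic from -0.5 to +0.5, computed with the Universal PBM Analysis Suite. Scale: above 0.35 generally sequence-specific binding.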

Sequence | PBM E-score
CACTTGAC | -0.148
GGGCACGA | -0.196
AAGAGCCG | -0.248
CGGTCCAC | 0.0093
GCCCCGGC | -0.251
AGAGACGC | -0.176
CGGTTGAA | 0.221
GCTATGCA | -0.101
ATCGGAGG | -0.139
ACATGCGG | -0.0584
AGTGGAGG | -0.0201
ACGCCGTG | -0.0258
ACTGTAAT | -0.0954
GTACAGGA | 0.0673
ATTCTCAC | 0.0449
CTAGAGCA | -0.219
ATCTACTC | -0.105
AACAGTGT | -0.111
CGCGACAA | 0.181
AGCCACAT | -0.00209
CCCATTTA | 0.194
CGACGATC | 0.0406
CACAAGCC | -0.117
ACGTCACT | -0.246
AGCATAGA | -0.0758

Sequence | PBM E-score
ATGCCCGA | -0.235
CTCACTTC | -0.247
GATTTGGC | -0.235
CCTCTCGC | -0.108
ATCGCAAT | 0.078
TAATATTA | 0.253
CCACATAA | 0.0331
CGGCGCAA | 0.00408
TAGACCTA | -0.125
CGTCAAGA | 0.0774
GCGCGAGA | -0.0112
CTTCTTTC | -0.18
CTCGGATA | -0.00056
GCTTAAGC | -0.0187
ATGGGGTC | 0.284
TGAGGTAA | 0.285
CGTAAACC | 0.244
CGAGGGCC | -0.0851
AAAGGAGG | -0.123
CAATAATC | 0.173
ATGATCAT | 0.297
CATAGACG | -0.0348
ACGAACGT | -0.0259
GATACACC | 0.13
AGGCCGGA | -0.132

Sequence | PBM E-score
GAAGTCTC | -0.277
CGGAAACA | 0.0399
AGCCGTCA | 0.0543
CGTACCAG | -0.0696
TTGGACAA | 0.0638
ATGTACAT | 0.244
AACCATGG | 0.194
AGCCACGG | -0.174
ATGGTAAT | 0.239
AGATCGTA | -0.105
ACGCACGC | -0.149
CGTAGCCA | -0.0918
CAGTGCAG | -0.248
CTAGGTGA | -0.196
GCGCTTGA | 0.00852
AAACCTGA | 0.138
ACTGAAGG | -0.0723
ATATTACA | 0.207
AATATAAA | 0.152
GACATCCC | -0.0296
AGTCTAGC | -0.25
GGCAGAAC | -0.172
CTTGGTAA | 0.197
CGGTTGGC | 0.186
GAATCGTC | -0.149

Sequence | PBM E-score
CTCAACAA | 0.166
ATTCGAGG | 0.0202
ATCTTTGG | 0.0889
GATCCTAA | -0.0546
CCAGAGGG | 0.16
AGATATGG | -0.0835
AAAGCCAA | -0.0818
CCCTGAAA | 0.229
CCTGTAAA | 0.0433
GATCGGGC | -0.22
AGTTTCCC | -0.215
CCACGAGC | -0.182
ACTTTTAA | 0.0875
CGCGAAGA | 0.0175
ACTGCGGA | -0.116
ACCGCGCT | 0.0454
AGGAACGA | -0.259
ACTCAGCT | -0.0584
ATCTGCAA | -0.12
CCGACTGC | -0.199
ACTCTCGC | 0.0355
CAGACTTC | -0.0822
GCAGACAA | -0.0322
AGGAGGTA | 0.0936
AGCACGCC | -0.175

Sequence | PBM E-score
AGACCCAC | 0.252
ATTTTAGA | -0.0093
GGTCCAAA | 0.0248
ATGGGTTA | 0.455
GGCCCGAA | -0.0968
AGAGAGAT | -0.0814
CCGCTTCA | -0.134
AGACCGAC | -0.119
GCCACCGA | -0.108
AGCACTGA | -0.0986
ACGTTATC | -0.101
ATCCTGAC | 0.0474
AACAGCCT | 0.0412
CCCAGGGA | -0.113
CGAAATCC | -0.0787
TGGAGTAA | 0.114
CGCTAACA | 0.00453
ATATTTTA | 0.189
TCTTGCAA | 0.0407
CGAGTATA | 0.0115
ACATATGC | -0.165
ATCCGACC | -0.0494
ATCAGTAG | -0.0362
ACCCCATC | 0.177
ACAGTTGA | -0.0789

Sequence | PBM E-score
CATGGACC | -0.00589
ACTGCGCA | -0.0699
AATTACTG | 0.00477
AGGTAAAG | 0.127
CCCATAAC | 0.355
AGTTTATA | 0.0659
ATGGCGTC | -0.12
CCATGTCG | 0.00875
AGCTTCCG | -0.126
CGAATTAA | 0.193
AAACGTGC | -0.305
ACAAGCCC | -0.177
CCGGACCA | -0.0801
AAGTATAT | 0.00838
ACTTGCGA | 0.0666
AGCCGGAG | -0.0774
AGGATCGA | -0.113
ACAGGCAT | -0.162
CCTGAACC | 0.213
GTATACAC | -0.00689
GGCAGCCC | -0.00401
CCATGTCA | -0.233
GAAGGCAC | 0.00101
CTTAGTGC | -0.0751
GGGGACAC | -0.0745

Sequence | PBM E-score
CCTTGGAC | 0.0187
AGCAAGCG | -0.192
GTTGCGCA | -0.0415
ATTCCGTC | -0.213
GTGTCCGA | -0.0643
AAGACCTT | 0.285
TGTCCAAA | 0.137
AGGAGGAT | -0.304
GGGGGTGA | -0.167
AACCCACT | 0.295
CACCGGGC | 0.103
AAGCCTAC | -0.0465
GTTAAAAA | 0.285
ATCAATTC | -0.0949
CCCGCTTC | -0.134
CCAGCGAG | 0.092
ACCAGCCT | -0.171
GCTTGTCC | -0.127
CTTGGAAA | 0.0337
CACGACCA | 0.161
CTACCTGC | 0.01
ATCCGAGA | -0.0307
AGGTATAG | 0.209
GCGTAGGA | -0.212
CTGAACAC | 0.197

Sequence | PBM E-score
AGCCATCC | -0.154
AGCTGGGA | -0.303
CACAGCCA | -0.0278
AGGCCGTC | -0.121
GAGTACCC | 0.342
CGCCCAGC | -0.209
GCAACGCC | -0.161
ATATTAAG | 0.126
AACGGCCA | 0.145
CACTGGTC | -0.0725
AAAACTTT | 0.128
AAATGACC | 0.317
ACACGCGT | 0.11
CGGTTACC | 0.444
GCGTCAAA | 0.0983
AGTTGCTC | -0.182
CGAAACGC | -0.2
AGTAGCGG | -0.125
GAATGCCA | -0.103
ACCAGTGG | 0.0092
ACAGACAG | 0.144
GACGTCGA | -0.0298
ACTGTCGA | -0.0508
GGCCTAAA | -0.0802
ATCCTTTC | -0.129

Sequence | PBM E-score
CCGATCTA | -0.0785
ACAGTGGT | 0.185
GGCGGGGA | 0.134
AGAACTAG | -0.0303
TCGCGCGA | 0.196
TAACGTTA | 0.118
ATTGATCC | -0.045
AGATCCAA | 0.042
CGAATACC | 0.167
CAAGTGCG | -0.0607
AGGCCGGG | -0.0878
AGATCTCC | -0.307
CGCAGAAG | -0.0593
ATACCGGA | -0.0537
GGGTCGAA | 0.195
GCCTTGTA | -0.069
CTATCGCA | -0.0753
ATGTGACA | 0.129
CCCAATCA | 0.0881
